{"source": "paper PMC4336329", "about": "(PLoS ONE, 2015)", "note": "The whole screen tested about 310,000 compounds, of which about 2,200 (0.71%) showed an effect of 50% or more. The effect is printed as a negative number. This is one part of the list.", "data": [{"target": "human ether-à-go-go-related gene (hERG) potassium channel (human, UniProt Q12809)", "sequence (Q12809 whole entry, looked up)": "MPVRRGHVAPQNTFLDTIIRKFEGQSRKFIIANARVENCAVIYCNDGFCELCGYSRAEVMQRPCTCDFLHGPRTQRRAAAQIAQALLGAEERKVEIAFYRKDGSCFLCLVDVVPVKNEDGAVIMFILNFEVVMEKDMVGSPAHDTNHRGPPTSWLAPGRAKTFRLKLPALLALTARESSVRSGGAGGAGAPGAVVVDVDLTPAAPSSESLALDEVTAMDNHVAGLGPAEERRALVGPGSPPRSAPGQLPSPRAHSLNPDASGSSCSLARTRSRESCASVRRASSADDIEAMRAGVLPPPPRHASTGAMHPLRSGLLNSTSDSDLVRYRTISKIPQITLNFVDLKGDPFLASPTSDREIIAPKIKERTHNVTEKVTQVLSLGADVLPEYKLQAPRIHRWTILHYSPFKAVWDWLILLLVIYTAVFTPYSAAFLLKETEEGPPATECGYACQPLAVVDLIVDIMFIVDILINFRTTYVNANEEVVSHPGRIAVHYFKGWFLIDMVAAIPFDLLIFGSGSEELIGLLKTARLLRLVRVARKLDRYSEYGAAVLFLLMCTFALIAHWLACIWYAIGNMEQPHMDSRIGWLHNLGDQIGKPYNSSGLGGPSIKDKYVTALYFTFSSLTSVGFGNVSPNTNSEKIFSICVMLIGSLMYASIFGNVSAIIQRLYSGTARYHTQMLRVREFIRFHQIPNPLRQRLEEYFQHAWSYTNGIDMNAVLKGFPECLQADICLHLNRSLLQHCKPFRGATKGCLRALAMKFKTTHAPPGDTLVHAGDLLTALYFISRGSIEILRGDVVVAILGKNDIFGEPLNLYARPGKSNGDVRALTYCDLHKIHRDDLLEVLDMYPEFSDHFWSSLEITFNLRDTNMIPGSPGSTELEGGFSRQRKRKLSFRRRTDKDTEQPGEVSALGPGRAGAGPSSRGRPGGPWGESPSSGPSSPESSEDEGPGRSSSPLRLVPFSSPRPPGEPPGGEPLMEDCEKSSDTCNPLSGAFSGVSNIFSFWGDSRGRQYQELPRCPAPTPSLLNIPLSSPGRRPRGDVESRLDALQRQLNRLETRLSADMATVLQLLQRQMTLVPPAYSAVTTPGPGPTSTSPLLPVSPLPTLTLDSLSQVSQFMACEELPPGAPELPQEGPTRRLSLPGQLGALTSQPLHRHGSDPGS", "assay": "primary screen, population patch clamp on CHO cells stably expressing hERG", "units": {"hERG current change (%, negative = inhibition) at 1uM": "%"}, "values": [{"smiles": "O=C(C1CCCO1)N(c1cccc(Cl)c1)C1C=CS(=O)(=O)C1", "note": "(centres unmarked)", "hERG current change (%, negative = inhibition) at 1uM": 5.23}, {"smiles": "CC(=O)c1ccc(N2CCN(c3ccccc3O)CC2)c([N+](=O)[O-])c1", "hERG current change (%, negative = inhibition) at 1uM": 12.9}, {"smiles": "Cc1ccc(-c2nc(CSCC(=O)NC3CCN(Cc4ccccc4)CC3)c(C)o2)cc1", "hERG current change (%, negative = inhibition) at 1uM": -11.1}, {"smiles": "Cc1nc(SCC(=O)Nn2c(-c3ccccc3)nc3ccccc3c2=O)n[nH]1", "hERG current change (%, negative = inhibition) at 1uM": 7.38}, {"smiles": "CC(C)Cn1c(=O)c(C(=O)N/N=C/c2cccc(F)c2)c(O)c2ccccc21", "hERG current change (%, negative = inhibition) at 1uM": 10.6}, {"smiles": "Nc1ncnc2c1ncn2CCN1CCOCC1", "hERG current change (%, negative = inhibition) at 1uM": 6.99}, {"smiles": "COC(=O)C(C)Oc1cc(C)cc2oc(=O)c3c(c12)CCC3", "note": "(centres unmarked)", "hERG current change (%, negative = inhibition) at 1uM": 8.2}, {"smiles": "CCCCOc1ccc(NC(=O)CSc2nnnn2C)cc1", "hERG current change (%, negative = inhibition) at 1uM": 0.973}, {"smiles": "O=C(Nc1ccc2c(c1)OCCO2)c1ccc(Cl)c(Cl)c1", "hERG current change (%, negative = inhibition) at 1uM": 9.06}, {"smiles": "O=C(COC(=O)c1ccc(CO)cc1)Nc1ccc(OC(F)F)cc1", "hERG current change (%, negative = inhibition) at 1uM": 5.31}, {"smiles": "CCC(C(=O)Nc1ccon1)c1ccccc1", "note": "(centres unmarked)", "hERG current change (%, negative = inhibition) at 1uM": 9.61}, {"smiles": "Cc1ccccc1-n1nc(-c2cccnc2)cc1C(=O)N/N=C/c1ccncc1", "hERG current change (%, negative = inhibition) at 1uM": -22.3}, {"smiles": "CCn1c(SCC(=O)N2CCCc3ccccc32)nc2cccnc21", "hERG current change (%, negative = inhibition) at 1uM": 13.5}, {"smiles": "CCOC(=O)c1c(NC(=O)COC(=O)c2ccc(O)cc2)sc(C(=O)NC)c1C", "hERG current change (%, negative = inhibition) at 1uM": 2.5}, {"smiles": "CCN(c1ccc(OC)cc1)S(=O)(=O)c1ccc2c(c1)NC(=O)CS2", "hERG current change (%, negative = inhibition) at 1uM": 13.6}, {"smiles": "C[C@H](O)c1[nH]c2cc(F)ccc2c1[C@H](C)O", "hERG current change (%, negative = inhibition) at 1uM": 14.2}, {"smiles": "COc1cccc(C2Nc3ccccc3NC3=C2C(=O)CC(C)(C)C3)c1", "note": "(centres unmarked)", "hERG current change (%, negative = inhibition) at 1uM": 6.32}, {"smiles": "Cc1cc(NC(=O)CSc2nc3c(cc2C#N)CCCCC3)no1", "hERG current change (%, negative = inhibition) at 1uM": 0.175}, {"smiles": "CN(Cc1ccccc1)S(=O)(=O)c1ccc(N2CCCC2=O)cc1", "hERG current change (%, negative = inhibition) at 1uM": 2.79}, {"smiles": "CCOc1cc(/C=C2\\N=C(SC)SC2=O)cc([N+](=O)[O-])c1OC(C)=O", "hERG current change (%, negative = inhibition) at 1uM": 1.05}, {"smiles": "COc1ccc(-n2ncc3c2CC(C)(C)CC3NC(=O)c2cnc(C)cn2)cc1", "note": "(centres unmarked)", "hERG current change (%, negative = inhibition) at 1uM": 6.85}, {"smiles": "Cc1ccc(S(=O)(=O)CCC(=O)OCC(=O)N(C)C2CCS(=O)(=O)C2)cc1", "note": "(centres unmarked)", "hERG current change (%, negative = inhibition) at 1uM": 13.9}, {"smiles": "Cc1ccc(OCc2nc(-c3ccc(Cl)cc3)n[nH]2)cc1.Cl", "hERG current change (%, negative = inhibition) at 1uM": -0.627}, {"smiles": "O=c1oc2ccccc2c(O)c1/C=N/c1ncccn1", "hERG current change (%, negative = inhibition) at 1uM": 8.99}, {"smiles": "CC(C(=O)O)c1n[nH]c(=O)c2ccccc12", "note": "(centres unmarked)", "hERG current change (%, negative = inhibition) at 1uM": 7.37}, {"smiles": "CN1CCN(c2ccccc2NC(=O)c2ccc3c(c2)OCCO3)CC1", "hERG current change (%, negative = inhibition) at 1uM": 7.42}, {"smiles": "O=[N+]([O-])c1ccc(N/N=C\\c2cccn2-c2ccccc2)nc1", "hERG current change (%, negative = inhibition) at 1uM": 11.4}, {"smiles": "CC[C@@]12C(=O)N(c3ccccc3)C(=O)N1[C@H](c1ccc(OC)cc1)[C@@H]1C(=O)N(C(C)(C)C)C(=O)[C@@H]12", "hERG current change (%, negative = inhibition) at 1uM": 20.2}, {"smiles": "O=C(OCN1C(=O)c2ccccc2C1=O)/C(=C\\c1ccco1)NC(=O)c1ccccc1", "hERG current change (%, negative = inhibition) at 1uM": 0.0037}, {"smiles": "Cc1c(Cl)c(C(F)(F)F)nn1CC(=O)NN", "hERG current change (%, negative = inhibition) at 1uM": 2.15}, {"smiles": "Cc1ccc(NC(=O)CCn2c(=O)[nH]c3ccsc3c2=O)cc1C", "hERG current change (%, negative = inhibition) at 1uM": 9.65}, {"smiles": "Cl.NCCc1c[nH]c2ccc(O)cc12", "hERG current change (%, negative = inhibition) at 1uM": 6.92}, {"smiles": "O=c1[nH]c2ccccc2nc1C(F)(F)C(F)F", "hERG current change (%, negative = inhibition) at 1uM": 9.59}, {"smiles": "CCN(CC)CCNC(=O)C(=O)NCC1OCCN1S(=O)(=O)c1ccc([N+](=O)[O-])cc1", "note": "(centres unmarked)", "hERG current change (%, negative = inhibition) at 1uM": 11.8}, {"smiles": "NC(=O)CS(=O)(=O)c1nc2ccccc2n1Cc1ccccc1F", "hERG current change (%, negative = inhibition) at 1uM": 19}, {"smiles": "Cc1ccc(N2CCN(CC(O)COc3ccc([N+](=O)[O-])cc3)CC2)cc1", "note": "(centres unmarked)", "hERG current change (%, negative = inhibition) at 1uM": -65.4}, {"smiles": "CCN(c1ccccc1)S(=O)(=O)c1ccc(Cl)c(C(=O)N(CC2CCCO2)C2CCS(=O)(=O)C2)c1", "note": "(centres unmarked)", "hERG current change (%, negative = inhibition) at 1uM": 8.25}, {"smiles": "COc1cc(C(=O)COC(=O)c2cnc(C)cn2)ccc1OC(F)F", "hERG current change (%, negative = inhibition) at 1uM": 15.4}, {"smiles": "CCCCn1c(N)c(N(CCOC)C(=O)c2oc3ccc(OC)cc3c2C)c(=O)[nH]c1=O", "hERG current change (%, negative = inhibition) at 1uM": 7.08}, {"smiles": "O=C(c1ccc(F)cc1)N1CCC(C(=O)N2CCN(S(=O)(=O)c3cccc(F)c3)CC2)CC1", "hERG current change (%, negative = inhibition) at 1uM": 7.06}, {"smiles": "CN1C(=O)[C@H]2[C@@H](C3CC3)N3C(=O)CN(Cc4ccccn4)C(=O)[C@@]3(Cc3ccccc3)[C@H]2C1=O", "hERG current change (%, negative = inhibition) at 1uM": 7.58}, {"smiles": "NC(=O)CC(NC(=O)c1cccc(Br)c1)c1ccc(NC2CCCCCCC2)c([N+](=O)[O-])c1", "note": "(centres unmarked)", "hERG current change (%, negative = inhibition) at 1uM": 7.23}, {"smiles": "COc1cc(/C=N/NC(=O)c2cccnc2)ccc1OC(=O)c1cccc(Br)c1", "hERG current change (%, negative = inhibition) at 1uM": -1.37}, {"smiles": "CC1(C)CC(=O)c2sc(NC(=O)c3cccs3)nc2C1", "hERG current change (%, negative = inhibition) at 1uM": 5.62}, {"smiles": "O=C(O)CC(=O)NC12CC3CC(CC(C3)C1)C2", "hERG current change (%, negative = inhibition) at 1uM": 9.11}, {"smiles": "Cc1ccc(NC(=O)CN(C)Cc2cccs2)cc1Cl", "hERG current change (%, negative = inhibition) at 1uM": 10.8}, {"smiles": "Cc1nn(Cc2ccccc2Cl)c(C)c1C(=O)Nc1nnc(C2CC2)s1", "hERG current change (%, negative = inhibition) at 1uM": 3.25}, {"smiles": "CC(=O)N=c1cccc(NC(C)=O)n1O", "hERG current change (%, negative = inhibition) at 1uM": 6.98}, {"smiles": "NS(=O)(=O)c1ccc(NC(=S)NCc2ccc(F)cc2)cc1", "hERG current change (%, negative = inhibition) at 1uM": -6.67}, {"smiles": "CCCCN1C(=O)CC(C(=O)O)C1c1ccc(OC)cc1", "note": "(centres unmarked)", "hERG current change (%, negative = inhibition) at 1uM": 3.01}, {"smiles": "COC(=O)c1ccc(C)c(-n2c(=O)n(Cc3ccccc3)c(=O)c3[nH]cnc32)c1", "hERG current change (%, negative = inhibition) at 1uM": 14.7}, {"smiles": "C#CCOc1ccc(Cl)cc1/C=C1/C(=O)ON=C1C", "hERG current change (%, negative = inhibition) at 1uM": 12.9}, {"smiles": "CCOC(=O)COc1nc2ccc(Br)cc2c(-c2ccccc2)c1C(C)=O", "hERG current change (%, negative = inhibition) at 1uM": 6.63}, {"smiles": "Cc1ccc2sc(C)[n+](CCO)c2c1.[I-]", "hERG current change (%, negative = inhibition) at 1uM": 20.4}, {"smiles": "C=CCn1c(COc2ccc(Cl)cc2)nnc1SCc1ccc(C#N)cc1", "hERG current change (%, negative = inhibition) at 1uM": -29.8}, {"smiles": "CCCN(CCO)Cc1cccc(Oc2ccccc2)c1", "hERG current change (%, negative = inhibition) at 1uM": -1.16}]}]}
